Where a chain is given by its changes, count along the chain named. The list shows a part of the results.
T1: RBFOX1 RRM RbFoxmut (Fox-RRM*) (Homo sapiens, UniProt Q9NWB1 109-208, R118D;E147R;N151S;E152T)
T1 sequence: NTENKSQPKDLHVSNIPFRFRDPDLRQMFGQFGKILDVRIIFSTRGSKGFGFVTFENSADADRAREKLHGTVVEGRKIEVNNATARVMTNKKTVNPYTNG

B1: CAGCAAU (DNA:RNA)
RNA: GGGAGACCGGAAUUCAGAUUGUCCCAGCAAUUUAAAUCCCGUCGUAGCCACCA
DNA 1: CAATCTGAATTCCGGTCTCCC
DNA 2: TGGTGGCTACGACGGGATT
B2: UUCGUUA (DNA:RNA)
RNA: GGGAGACCGGAAUUCAGAUUGUCCUUCGUUAUUAAAUCCCGUCGUAGCCACCA
DNA 1: CAATCTGAATTCCGGTCTCCC
DNA 2: TGGTGGCTACGACGGGATT
B3: UUUCCCC (DNA:RNA)
RNA: B2 RNA with C27U, G28C, U29C, U30C, A31C
DNA 1: CAATCTGAATTCCGGTCTCCC
DNA 2: TGGTGGCTACGACGGGATT
B4: AUUCCAG (DNA:RNA)
RNA: B1 RNA with C25A, A26U, G27U, A29C, U31G
DNA 1: CAATCTGAATTCCGGTCTCCC
DNA 2: TGGTGGCTACGACGGGATT
B5: UUCCGAA (DNA:RNA)
RNA: B2 RNA with G28C, U29G, U30A
DNA 1: CAATCTGAATTCCGGTCTCCC
DNA 2: TGGTGGCTACGACGGGATT
B6: CCACGGC (DNA:RNA)
RNA: B1 RNA with A26C, G27A, A29G, A30G, U31C
DNA 1: CAATCTGAATTCCGGTCTCCC
DNA 2: TGGTGGCTACGACGGGATT
B7: UUAGCCC (DNA:RNA)
RNA: B2 RNA with C27A, U29C, U30C, A31C
DNA 1: CAATCTGAATTCCGGTCTCCC
DNA 2: TGGTGGCTACGACGGGATT
B8: AACCUUA (DNA:RNA)
RNA: B2 RNA with U25A, U26A, G28C
DNA 1: CAATCTGAATTCCGGTCTCCC
DNA 2: TGGTGGCTACGACGGGATT
B9: UUCGUGA (DNA:RNA)
RNA: B2 RNA with U30G
DNA 1: CAATCTGAATTCCGGTCTCCC
DNA 2: TGGTGGCTACGACGGGATT

target: T1, RBFOX1 RRM RbFoxmut (Fox-RRM*); assay: EMSA; HiTS-Eq, 1 nM pool, 10 min; buffer printed only for the single-RNA assays: 10 mM Tris pH 7.5, 150 mM NaCl, 3.4 mM EDTA, 0.001% NP-40, 30 C; details: tags: His6 N-terminal (pET28a); label: 5' 32P
How it was run: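 Purified RbFox RRM (wild type or mutant) was equilibrated for 10 min in 50 µL with 1 nM of a 5′-radiolabelled pool of RNA with 7 randomized nucleotides, its flanks annealed to DNA oligonucleotides, across increasing protein concentrations. Free RNA was separated by 8% native PAGE, excised, reverse-transcribed, PCR-barcoded and sequenced on an Illumina HiSeq 2500. Relative association constants came from read-count changes of each variant against the control reaction, normalised to the cognate motif.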

Binder | binding signal
B1 | 0.0463 KA relative to UGCAUGU
B2 | 0.129 KA relative to UGCAUGU
B3 | 0.0448 KA relative to UGCAUGU
B4 | 0.0883 KA relative to UGCAUGU
B5 | 0.105 KA relative to UGCAUGU
B6 | 0.0761 KA relative to UGCAUGU
B7 | 0.0877 KA relative to UGCAUGU
B8 | 0.143 KA relative to UGCAUGU
B9 | 0.0766 KA relative to UGCAUGU

Source: paper PMC9911399, “Two distinct binding modes provide the RNA-binding protein RbFox with extraordinary sequence specificity”
